Test results reported in a collection of fitness landscapes (doi:10.1126/science.1257360).
This is one part of the list.

B1: PhoQ; a variant is named by its letters at X, in order, P23837 (parent)
chain: MKKLLRLFFPLSLRVRFLLATAAVVLVLSLAYGMVALIGYSVSFDKTTFRLLRGESNLFYTLAKWENNKLHVELPENIDKQSPTMTLIYDENGQLLWAQRDVPWLMKMIQPDWLKSNGFHEIEADVNDTSLLLSGDHSIQQQLQEVREDDDDAEMTHSVAVNVYPATSRMPKLTIVVVDTIPVELKSSYMVWSWFIYVLSANLLLVIPLLWVAAWWSLRPIEALAKEVRELEEHNRELLNPATTRELTSLVRNLNRLLKSERERYDKYRTTLTDLTHSLKTPLXXLQXXLRSLRSEKMSVSDAEPVMLEQISRISQQIGYYLHRASMRGGTLLSRELHPVAPLLDNLTSALNKVYQRKGVNISLDISPEISFVGEQNDFVEVMGNVLDNACKYCLEFVEISARQTDEHLYIVVEDDGPGIPLSKREVIFDRGQRVDTLRPGQGVGLAVAREITEQYEGKIVAGESMLGGARMEVIFGRQHSAPKDE

Variants of: B1
Assay: enrichment ratio after two sorts for PhoP signalling (ratio (wild type AVST 3.29)); higher = more functional
Details: with PhoP (E. coli)

Variant | enrichment ratio
QHRA | ≤ 0.25
WCPG | ≤ 0.25
TGKT | ≤ 0.25
FAAF | ≤ 0.25
MNDA | ≤ 0.25
GRIT | ≤ 0.25
GQMY | ≤ 0.25
HMRC | ≤ 0.25
NSDK | ≤ 0.25
MKEI | ≤ 0.25
SPVP | ≤ 0.25
VVIP | ≤ 0.25
VKRC | ≤ 0.25
RGII | ≤ 0.25
TSIT | ≤ 0.25
PNWC | ≤ 0.25
MWGT | ≤ 0.25
NCVW | ≤ 0.25
NAST | ≤ 0.25
EYTA | ≤ 0.25
IIRR | ≤ 0.25
REII | ≤ 0.25
MSVA | ≤ 0.25
RWHH | ≤ 0.25
IQGE | ≤ 0.25
RSNL | ≤ 0.25

Variant | enrichment ratio
PNVQ | ≤ 0.25
GSMD | ≤ 0.25
LCRS | ≤ 0.25
FYTN | ≤ 0.25
AQTR | ≤ 0.25
ADCC | 4.94
GNKC | ≤ 0.25
HWSG | ≤ 0.25
DQIS | ≤ 0.25
TDFT | 1.54
FHTA | ≤ 0.25
THYI | ≤ 0.25
QETP | ≤ 0.25
ARHP | ≤ 0.25
WVHY | ≤ 0.25
RKFH | ≤ 0.25
WHPD | ≤ 0.25
PAHV | ≤ 0.25
HEGV | ≤ 0.25
YEKN | ≤ 0.25
WILL | ≤ 0.25
ADYC | ≤ 0.25
KCML | ≤ 0.25
VLAE | ≤ 0.25
TVDE | ≤ 0.25
WFHL | ≤ 0.25

Variant | enrichment ratio
FPKC | ≤ 0.25
APTA | ≤ 0.25
QNAL | 0.945
VVSR | ≤ 0.25
ADGW | ≤ 0.25
LRYM | ≤ 0.25
HWLK | ≤ 0.25
PHTL | ≤ 0.25
KNNA | ≤ 0.25
KQSC | ≤ 0.25
VFCI | ≤ 0.25
IPPY | ≤ 0.25
YTNM | ≤ 0.25
LWAI | ≤ 0.25
IFFP | ≤ 0.25
SRFQ | ≤ 0.25
PINL | ≤ 0.25
FHAI | ≤ 0.25
HLIF | ≤ 0.25
YYHE | ≤ 0.25
VEWE | ≤ 0.25
YNGD | ≤ 0.25
APHH | ≤ 0.25
HMHW | ≤ 0.25
PWTN | ≤ 0.25
KCKD | ≤ 0.25

Variant | enrichment ratio
DYFG | ≤ 0.25
YDKV | ≤ 0.25
MESW | ≤ 0.25
NNIM | ≤ 0.25
FSYL | ≤ 0.25
EKLC | ≤ 0.25
AWNM | ≤ 0.25
WKAC | ≤ 0.25
PMHM | ≤ 0.25
EPGM | ≤ 0.25
PPNN | ≤ 0.25
HRFT | ≤ 0.25
NNTS | ≤ 0.25
LCNF | ≤ 0.25
SVIP | ≤ 0.25
YCSY | ≤ 0.25
FVAK | ≤ 0.25
GTIK | ≤ 0.25
KNSE | ≤ 0.25
SPVK | ≤ 0.25
NTAL | ≤ 0.25
TSVF | 0.681
PMGI | ≤ 0.25
YQEV | ≤ 0.25
YEHV | ≤ 0.25
LATL | ≤ 0.25

Variant | enrichment ratio
IVRK | ≤ 0.25
VVMA | ≤ 0.25
INNK | ≤ 0.25
AKGW | ≤ 0.25
PAAL | ≤ 0.25
GESG | 10.9
FTPA | 0.426
VQAF | ≤ 0.25
GNVR | ≤ 0.25
TRRC | ≤ 0.25
ERDR | ≤ 0.25
SLCF | 5.27
NYVR | 0.286
PTSW | ≤ 0.25
VIEP | ≤ 0.25
SWWL | ≤ 0.25
TQPE | ≤ 0.25
LYIT | ≤ 0.25
QNAG | ≤ 0.25
FRMS | ≤ 0.25
KELK | ≤ 0.25
WCCN | ≤ 0.25
HQRY | ≤ 0.25
SVNG | 12.5
YSNA | ≤ 0.25
ESIE | ≤ 0.25

Variant | enrichment ratio
GDLK | ≤ 0.25
HPHV | ≤ 0.25
TQAT | 12.7
GAKF | ≤ 0.25
GTTE | ≤ 0.25
ACNS | ≤ 0.25
FFSG | ≤ 0.25
MLVY | ≤ 0.25
EQVH | ≤ 0.25
LTQG | ≤ 0.25
RHWW | ≤ 0.25
GVVH | ≤ 0.25
QESG | 6.03
DRCV | ≤ 0.25
IPVF | ≤ 0.25
LTMR | ≤ 0.25
YNET | ≤ 0.25
QPHT | ≤ 0.25
DLWM | ≤ 0.25
FFLN | ≤ 0.25
YEMY | ≤ 0.25
YSFE | ≤ 0.25
PMTA | ≤ 0.25
